Consider one molecule from patent US20240392040A1 (AKESO HUIKE SHANGHAI, published 2024).

In one assay the target is T1, human LAG3-mFc (human, UniProt P18627 23-450, limits assumed).
T1 construct: not shown: mouse IgG Fc (mFc)
T1 sequence (looked up): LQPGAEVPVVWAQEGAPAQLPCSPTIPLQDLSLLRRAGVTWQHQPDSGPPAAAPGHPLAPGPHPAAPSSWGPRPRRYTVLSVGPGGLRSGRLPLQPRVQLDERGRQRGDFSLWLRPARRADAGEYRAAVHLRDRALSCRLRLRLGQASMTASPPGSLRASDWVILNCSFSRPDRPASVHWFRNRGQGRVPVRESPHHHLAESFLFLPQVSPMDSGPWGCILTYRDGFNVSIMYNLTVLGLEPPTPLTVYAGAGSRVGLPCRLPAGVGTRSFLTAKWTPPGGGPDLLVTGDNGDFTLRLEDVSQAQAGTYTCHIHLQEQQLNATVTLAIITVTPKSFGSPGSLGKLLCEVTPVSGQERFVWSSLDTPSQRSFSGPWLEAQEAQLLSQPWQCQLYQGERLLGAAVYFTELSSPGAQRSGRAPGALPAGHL
Kind of assay: indirect ELISA, coated human LAG3-mFc. On the procedure: Then the ELISA plate coated with the antigen was washed once with PBST and then blocked with a PBS solution containing 1% BSA as a blocking solution at 37° C. for 2 h. After blocking, the ELISA plate was washed 3 times with PBST. The ELISA plate containing the test antibodies was incubated at 37° C. for 30 min and then washed 3 times with PBST. […] After incubation, the plate was washed 4 times with PBST, TMB (Neogen, 308177) was added for chromogenesis in the dark for 5 min, and then a stop solution was added to terminate the chromogenic reaction. The ELISA plate was put into an ELISA plate reader immediately, and the OD value of each well in the ELISA plate was read at 450 nm. The data were analyzed and processed by SoftMax Pro 6.2.1.

In a further assay the target is T2, FcγRIIb (UniProt P31994 43-217, limits assumed).
T2 construct: Construct not described; his tag by its printed name; also called CD32b; hFCGR2B-his
T2 sequence (looked up): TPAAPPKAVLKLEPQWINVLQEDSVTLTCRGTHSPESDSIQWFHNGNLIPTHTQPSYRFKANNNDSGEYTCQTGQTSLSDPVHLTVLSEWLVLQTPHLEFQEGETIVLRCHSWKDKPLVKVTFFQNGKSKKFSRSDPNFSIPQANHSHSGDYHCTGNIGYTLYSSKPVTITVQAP
Put plainly: BLI (Fortebio Octet), FcγRIIb on NTA sensor, antibody in solution. As to the method: The data were analyzed by 1:1 model fitting to obtain affinity constants.

The target of assay [1] is T3, LAG3 on 293T-LAG3 membrane surface (full-length human LAG3 on cells) (human, UniProt P18627 23-525).
T3 sequence (looked up): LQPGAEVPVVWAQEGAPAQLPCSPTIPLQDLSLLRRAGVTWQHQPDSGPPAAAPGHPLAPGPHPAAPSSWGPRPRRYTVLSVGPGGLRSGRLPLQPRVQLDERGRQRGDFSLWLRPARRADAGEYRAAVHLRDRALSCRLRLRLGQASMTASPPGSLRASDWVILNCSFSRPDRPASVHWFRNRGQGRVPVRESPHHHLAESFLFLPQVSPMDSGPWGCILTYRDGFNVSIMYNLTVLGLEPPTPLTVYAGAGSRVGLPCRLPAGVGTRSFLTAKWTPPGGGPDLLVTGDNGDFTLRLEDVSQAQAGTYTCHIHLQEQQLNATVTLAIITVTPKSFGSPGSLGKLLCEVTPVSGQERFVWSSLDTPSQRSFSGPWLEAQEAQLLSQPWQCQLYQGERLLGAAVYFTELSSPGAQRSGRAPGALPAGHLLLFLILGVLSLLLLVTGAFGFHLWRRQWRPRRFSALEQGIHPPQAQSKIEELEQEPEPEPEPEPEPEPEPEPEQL
Kind of assay: cell-based or functional assay.

A further assay deals with T4, human PD-1-mFc-Biotin (human, UniProt Q15116 partial chain, limits assumed, biotin label (site not stated)).
T4 construct: not shown: mouse IgG Fc (mFc)
Kind of assay: competitive ELISA, blocking of PD-1-mFc-Biotin binding to coated human PDL1-mFc. As to the method:
After incubation, the ELISA plate was blocked with a PBS solution containing 1% BSA at 37° C. for 2 h. After blocking, the plate was washed three times and dried. The antibody was serially diluted on a dilution plate in a 3-fold dilution ratio to achieve 7 concentrations with 80 nM as the starting concentration (at a final concentration of 40 nM), and a blank control was set. […] Then the mixture was incubated at room temperature for 10 min. Then the mixture after reaction was added to the coated ELISA plate, and the ELISA plate was incubated at 37° C. for 30 min. After incubation, the plate was washed three times with PBST and dried. An SA-HRP (KPL, 14-30-00) working solution was added, and the plate was incubated at 37° C. for 30 min. After incubation, the plate was washed four times and dried. Then TMB (Neogen, 308177) was added in the dark for chromogenesis for 5 min, and then a stop solution was added to terminate the chromogenic reaction. The ELISA plate was put into an ELISA plate reader immediately, and the OD value of each well in the ELISA plate was read at 450 nm. The data were analyzed and processed by SoftMax Pro 6.2.1.

The target in the next assay is T5, LAG3-mG1Fc (UniProt P18627 23-450).
T5 construct: not shown: mG1Fc (mouse IgG1 Fc by its name)
T5 sequence (looked up): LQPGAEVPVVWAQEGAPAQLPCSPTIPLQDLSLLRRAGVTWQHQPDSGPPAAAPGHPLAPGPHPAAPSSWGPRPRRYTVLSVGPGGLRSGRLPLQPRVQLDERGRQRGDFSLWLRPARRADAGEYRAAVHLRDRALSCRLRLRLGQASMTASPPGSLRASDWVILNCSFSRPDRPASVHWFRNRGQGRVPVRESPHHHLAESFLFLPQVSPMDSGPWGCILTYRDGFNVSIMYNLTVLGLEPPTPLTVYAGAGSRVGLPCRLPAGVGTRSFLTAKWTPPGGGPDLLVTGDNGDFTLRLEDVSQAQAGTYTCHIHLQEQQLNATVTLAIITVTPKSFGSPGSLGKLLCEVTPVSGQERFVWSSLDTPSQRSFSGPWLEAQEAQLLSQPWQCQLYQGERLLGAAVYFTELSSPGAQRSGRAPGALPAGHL
Kind of assay: competitive flow cytometry, LAG3-mG1Fc 3 nM pre-incubated with antibody, binding to MHC II on Raji cells.

Assay [2] concerns the target T6, PD-1 on 293T-PD1 membrane surface (full-length human PD-1 on cells) (human, UniProt Q15116 25-288).
T6 construct: whole, on cells; the Promega PD-1 effector cells are bought; also called CHO-K1-PD1 cells
Kind of assay: flow cytometry on 293T-PD1 cells. As to the method: 100 μL of 1% PBSA was then added to each well, and the mixture was centrifuged at 350×g for 5 min, followed by removal of the supernatant. […] The mixture was mixed gently and uniformly, and then incubated on ice for 1 h. 100 μL of 1% PBSA was added to each well, and the mixture was centrifuged at 350×g for 5 min, followed by removal of the supernatant. Then the plate was washed twice with 200 μL of 1% PBSA. […] The mixture was mixed well and then incubated on ice in the dark for 0.5 h. 100 μL of 1% PBSA was added to each well, and the mixture was centrifuged at 350×g for 5 min, followed by removal of the supernatant. Then the plate was washed twice with 200 μL of 1% PBSA. 400 μL of 1% PBSA was added to each well to resuspend the cell pellets, and the mixture was transferred to a flow cytometry tube for FACSCalibur assay.

Sequence of human PD-1-mFc-Biotin (Q15116 25-170 limits assumed): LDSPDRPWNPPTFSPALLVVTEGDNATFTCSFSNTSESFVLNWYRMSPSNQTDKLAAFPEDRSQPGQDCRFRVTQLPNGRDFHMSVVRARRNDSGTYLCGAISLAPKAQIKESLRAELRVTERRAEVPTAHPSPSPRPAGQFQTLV

B1: BS-PL022B (bispecific antibody, human IgG1, kappa)
heavy: QVQLQQWGAGLLKPSETLSLTCAVYGGSISDYYWNWIRQPPGKGLEWIGEINHRGTTNSNPSLKSRVTLSLDTSKNQFSLKLRSVTAADTAVYYCAFGYSDYEYDWFDPWGQGTLVTVSSASTKGPSVFPLAPSSKSTSGGTAALGCLVKDYFPEPVTVSWNSGALTSGVHTFPAVLQSSGLYSLSSVVTVPSSSLGTQTYICNVNHKPSNTKVDKKV[skipping human IgG1 Fc with L234A L235A G237A (EU numbers)]GGGGSGGGGSGGGGSGGGGSEVQLVESGGGLVQPGGSLRLSCAASGFAFSSYDMSWVRQAPGKGLDWVATISGGGRYTYYPDSVKGRFTISRDNSKNNLYLQMNSLRAEDTALYYCANRYGEAWFAYWGQGTLVTVSSGGGGSGGGGSGGGGSGGGGSDIQMTQSPSSMSASVGDRVTFTCRASQDINTYLSWFQQKPGKSPKTLIYRANRLVSGVPSRFSGSGSGQDYTLTISSLQPEDMATYYCLQYDEFPLTFGAGTKLELKR
light: EIVLTQSPATLSLSPGERATLSCRASQTISSYLAWYQQKPGQAPRLLIYDASNRATGIPARFSGSGSGTDFTLTISSLEPEDFAVYYCQQRSNWPITFGQGTNLEIKRTVAAPSVFIFPPSDEQLKSGTASVVCLLNNFYPREAKVQWKVDNALQSGNSQESVTEQDSKDSTYSLSSTLTLSKADYEKHKVYACEVTHQGLSSPVTKSFNRGEC
notes: Morrison form (IgG-scFv): an scFv at the C-terminus of each of the two heavy chains
As for B1, the EC50 with human LAG3-mFc is 0.081 nM; with human PD-1-mFc-Biotin, 3.46 nM; in the assay with LAG3-mG1Fc it was 1.31 nM; in assay [2] it was 6.07 nM. Moreover, in the assay with FcγRIIb, the binding result was “no binding”. In addition, the “EC50 (nM), luciferase reporter (RLU), Jurkat-NFAT-PD1-LAG3 cells + SEE-treated Raji cells” value in assay [1] was 0.976 nM.
